Assay results from paper PMC8103106.
Results are given in words; binding and its absence hold for the method and conditions named. Binding seen in cells or lysates may run through a third protein. Some results given as binding are weak or reduced against the parent protein; the word gives no strength. Where a sequence is shown, tags or fusion partners need not be part of it.

Target: FLAG-RAB7, P51149
Assay: co-IP; HeLa^WT cells transiently co-expressing VPS41-APEX2-V5 constructs and FLAG-RAB7 or GFP-Arl8b; IP on FLAG or GFP, respectively; CHAPS lysis buffer
Conditions: remark: other sources report otherwise

binding: binds
B1: VPS41^WT-APEX2-V5, P49754-1 1-854 (protein)
chain: MAEAEEQETGSLEESTDESEEEESEEEPKLKYERLSNGVTEILQKDAASCMTVHDKFLALGTHYGKVYLLDVQGNITQKFDVSPVKINQISLDESGEHMGVCSEDGKVQVFGLYSGEEFHETFDCPIKIIAVHPHFVRSSCKQFVTGGKKLLLFERSWMNRWKSAVLHEGEGNIRSVKWRGHLIAWANNMGVKIFDIISKQRITNVPRDDISLRPDMYPCSLCWKDNVTLIIGWGTSVKVCSVKERHASEMRDLPSRYVEIVSQFETEFYISGLAPLCDQLVVLSYVKEISEKTEREYCARPRLDIIQPLSETCEEISSDALTVRGFQENECRDYHLEYSEGESLFYIVSPRDVVVAKERDQDDHIDWLLEKKKYEEALMAAEISQKNIKRHKILDIGLAYINHLVERGDYDIAARKCQKILGKNAALWEYEVYKFKEIGQLKAISPYLPRGDPVLKPLIYEMILHEFLESDYEGFATLIREWPGDLYNNSVIVQAVRDHLKKDSQNKTLLKTLAELYTYDKNYGNALEIYLTLRHKDVFQLIHKHNLFSSIKDKIVLLMDFDSEKAVDMLLDNEDKISIKKVVEELEDRPELQHVYLHKLFKRDHHKGQRYHEKQISLYAEYDRPNLLPFLRDSTHCPLEKALEICQQRNFVEETVYLLSRMGNSRSALKMIMEELHDVDKAIEFAKEQDDGELWEDLILYSIDKPPFITGLLNNIGTHVDPILLIHRIKEGMEIPNLRDSLVKILQDYNLQILLREGCKKILVADSLSLLKKMHRTQMKGVLVDEENICESCLSPILPSDAAKPFSVVVFHCRHMFHKECLPMPSMNSAAQFCNICSAKNRGPGSAILEMKK
